Data published in PubChem BioAssay AID1460 (National Center for Advancing Translational Sciences (NCATS), 2008).
Where “and” joins values, the source holds several entries; their conditions need not be identical. Equal entries are not always repeated. Screen size: about 270,000 compounds; about 5,800 (2.1%) were called active. The shares of active, inactive and inconclusive entries below differ from those in the screen. The call rests on the fitted dose curve; in most records, active means well fitted inhibition curve with a large enough effect; inconclusive means small, poorly fitted or top-dose-only effect; inactive means flat fitted curve, though single readings scatter. A potency beside an inconclusive call is a rough fit, not a confirmed value.

Target: Microtubule-associated protein tau (Homo sapiens) (UniProt P10636)
Sequence of UniProt P10636 (P10636 whole entry, looked up): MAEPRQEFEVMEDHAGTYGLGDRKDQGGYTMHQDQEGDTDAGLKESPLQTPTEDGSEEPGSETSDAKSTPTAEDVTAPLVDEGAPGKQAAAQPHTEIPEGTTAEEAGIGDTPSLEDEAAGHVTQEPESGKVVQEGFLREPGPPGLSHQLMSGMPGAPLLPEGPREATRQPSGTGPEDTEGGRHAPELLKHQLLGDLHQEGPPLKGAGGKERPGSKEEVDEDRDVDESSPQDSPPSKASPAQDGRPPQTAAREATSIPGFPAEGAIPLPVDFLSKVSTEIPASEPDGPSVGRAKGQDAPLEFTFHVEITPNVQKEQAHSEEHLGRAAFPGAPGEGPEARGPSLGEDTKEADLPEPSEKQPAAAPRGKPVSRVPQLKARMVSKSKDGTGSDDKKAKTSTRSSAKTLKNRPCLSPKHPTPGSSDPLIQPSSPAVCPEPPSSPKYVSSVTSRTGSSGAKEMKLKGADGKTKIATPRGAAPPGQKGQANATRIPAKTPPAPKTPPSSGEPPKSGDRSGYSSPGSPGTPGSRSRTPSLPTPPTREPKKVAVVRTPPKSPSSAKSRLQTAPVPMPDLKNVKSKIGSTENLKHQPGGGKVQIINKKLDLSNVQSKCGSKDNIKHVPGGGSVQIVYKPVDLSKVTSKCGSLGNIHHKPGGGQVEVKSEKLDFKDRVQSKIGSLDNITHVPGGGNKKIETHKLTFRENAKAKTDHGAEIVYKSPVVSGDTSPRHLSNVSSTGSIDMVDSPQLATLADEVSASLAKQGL
Experiment: qHTS for Inhibitors of Tau Fibril Formation, Thioflavin T Binding; further: nearly all actives have a fitted effect of over 55% in size
Details: recombinant tau K18 P301L (four-repeat tau fragment), heparin-induced fibrillization, ThT fluorescence; series mostly up to 57.4 µM; activity, negative = inhibition: at the top concentration
In short: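 Heparin-induced (20 uM) aggregation of recombinant human K18 P301L tau, 15 uM unlabeled with 0.24 uM labeled, pH 7 acetate buffer, 6 hr at 37 C with compound. Fibrils quantified by 30 uM ThT fluorescence after 1 hr ambient incubation.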
On the % scale 0 is the no-effect control and ±100 the full control effect; potency means the concentration at half of the fitted maximal effect; tags describe the fitted curve by direction and shape.

Row | Structure (SMILES) | Potency | activity, negative = inhibition
1 | COc1ccccc1NS(=O)(=O)c1ccc(N/N=C(\C)C(C)C)c([N+](=O)[O-])c1 | inconclusive: 7.08 µM [inhibitor, partial curve] | –
2 | COc1ccc(Cn2c(SCc3ccccc3C)nc3cc(OC)c(OC)cc3c2=N)cc1 | inconclusive: 31.6 µM [inhibitor, partial curve] | –
3 | CCSc1nnc(NC(=O)CSc2nnc(-c3c[nH]c4ccccc34)n2CC)s1 | inconclusive: 14.1 µM [inhibitor, partial curve, poor fit] | –
4 | Cc1oc(-c2cccc(Cl)c2)nc1CS(=O)(=O)CC(=O)NCc1ccccc1Cl | – | inactive: 0.91%
5 | CN1C=CC=C/C1=C1\SC(=S)N(C2CCCCC2)C1=O | inconclusive: 22.4 µM [inhibitor, partial curve] | –
6 | CCOc1ccc(-n2c(SCC(=O)N3CCC(C)CC3)nc3c([nH]c4ccccc43)c2=O)cc1 | – | inactive: 12.8%
7 | CCc1cccc(C)c1NC(=O)COC(=O)CNS(=O)(=O)/C=C/c1ccccc1 | – | inactive: -3.48%
8 | Cc1cc2cc(CCNC(=O)c3ccc(Br)o3)c(=O)[nH]c2cc1C | inconclusive: 14.1 µM [inhibitor, partial curve] | –
9 | CCOc1ccc(C(=O)NCCc2sc(-c3ccc(OC)c(OC)c3)nc2C)cc1 | inconclusive: 1.58 µM [inhibitor, full curve] | –
10 | Cn1c(C(=O)c2ccncc2)cc2ccccc21 | inconclusive: 0.126 µM [inhibitor, full curve, poor fit] | –
11 | Cc1ccc(C)c(N2CCN(c3ccc4cc(S(=O)(=O)N5CCC(C)CC5)ccc4n3)CC2)c1 | – | inactive: 0.595%
12 | CSc1ncc(CN2CCc3c([nH]c4ccccc34)C2c2cccc(O)c2)cn1 (configuration not stated) | – | inactive: -18%
13 | O=C(OCc1cc(=O)n2c(n1)sc1ccccc12)c1ccc2c(=O)n3c(nc2c1)CCC3 | inconclusive: 3.55 µM [inhibitor, partial curve] | –
14 | CCOC(=O)CSc1nnc(NCC(=O)OC(C)C)c(=O)[nH]1 | inconclusive: 14.1 µM [inhibitor, partial curve] | –
15 | CCC(C)NS(=O)(=O)c1ccc(S(=O)(=O)N2CC=C(c3ccc(F)cc3)CC2)cc1 (configuration not stated) | – | inactive: -0.264%
16 | O=C(Nc1ccc(N2CCOCC2)cc1)Nc1ccc2nc(-c3ccco3)c(-c3ccco3)nc2c1 | – | inactive: 8.54%
17 | CCOC(=O)c1cnc(-c2cccc(OC)c2)[nH]c1=O | – | inactive: -3.66%
18 | CC(C)=CCc1c2c(c3occ(-c4ccc(O)cc4)c(=O)c3c1O)C=CC(C)(C)O2 | inactive and inconclusive: 31.6 µM [inhibitor, single point] | –
19 | COc1cc(/C=N/Nc2nc3ccccc3s2)ccc1OC(=O)c1ccccc1F | inconclusive: 7.94 µM [inhibitor, partial curve] | –
20 | COc1ccc(-c2csc(N(CCc3ccc(OC)c(OC)c3)C(=O)COc3ccccc3)n2)cc1 | inconclusive: 5.01 µM [inhibitor, partial curve, poor fit] | –
21 | COc1cc(C(C)=O)ccc1OC(=O)C(C)N1C(=O)c2ccccc2C1=O (configuration not stated) | inconclusive: 17.8 µM [inhibitor, partial curve, poor fit] | –

Row | Structure (SMILES) | Potency | activity, negative = inhibition
22 | O=C(N/N=C/C(Cl)=C/c1ccc([N+](=O)[O-])cc1)C(=O)Nc1ccc(C(=O)O)cc1 | active: 3.55 µM | –
23 | COC(=O)[C@@H](NC(=O)/C=C/c1ccc(OC)cc1)C(C)C | – | inactive: -3.98%
24 | CC1CCCC(C)N1C(=C(Cl)Cl)C(=C1SCCS1)[N+](=O)[O-] (configuration not stated) | inconclusive: 25.1 µM [inhibitor, partial curve, poor fit] | –
25 | O=C(Nc1ccc2oc(-c3cccnc3)nc2c1)c1ccc(Br)cc1 | inconclusive: 0.501 µM [inhibitor, partial curve] | –
26 | Cc1cc(C(=O)Cn2nc(C(=O)O)c3ccccc3c2=O)c(C)n1CCc1ccc(F)cc1 | inconclusive: 14.1 µM [inhibitor, partial curve, poor fit] | –
27 | S=C(Nc1ccccc1)Nc1ccc(OCc2ccc(Cl)cc2Cl)cc1 | inconclusive: 12.6 µM [inhibitor, partial curve] | –
28 | S=C(NC1CCCC1)N1CCN(c2ccc(Cl)cc2)CC1 | inconclusive: 22.4 µM [inhibitor, partial curve, poor fit] | –
29 | CCOc1ccc(NC(=O)C2CC(=O)OC2c2ccccc2)cc1 (configuration not stated) | – | inactive: 2.05%
30 | Nc1ccc2c(c1Cl)C(=O)c1ccc(N)c(Cl)c1C2=O | inconclusive: 14.1 µM [inhibitor, partial curve] | –
31 | O=C(CSC1=NCCS1)N1CCCC1 | – | inactive: -1.53%
32 | Cc1nonc1NC(=O)CSc1nc2ccccc2cc1C#N | active: 1.78 µM | –
33 | Cc1cc(SCC(=O)c2ccc(O)c(O)c2)nc2ccccc12 | inconclusive: 28.2 µM [inhibitor, partial curve] | –
34 | COc1ccc(N2CCN(C(=O)CC34CC5CC(CC(C5)C3)C4)CC2)c([N+](=O)[O-])c1 | inconclusive: 25.1 µM [inhibitor, partial curve] | –
35 | CC(C)N1C(=O)/C(=C\c2nc3ccccc3c(=O)n2-c2ccccc2)c2ccccc21 | inconclusive: 22.4 µM [inhibitor, partial curve] | –
36 | COc1ccc(C2CC(c3ccccc3)=NN2c2ccc(S(N)(=O)=O)cc2)cc1 (configuration not stated) | inconclusive: 12.6 µM [inhibitor, single point] | –
37 | CCOC(=O)CN1C(=O)N[C@H](c2ccc(Br)cc2)C(C(C)=O)=C1C | inconclusive: 25.1 µM [inhibitor, partial curve] | –
38 | Cc1ccsc1/C=N/NC(=O)c1ccc2c(c1)OCCO2 | inconclusive: 1 µM [inhibitor, full curve] | –
39 | O=C(CN1CCN(c2ccc([N+](=O)[O-])cc2Cl)CC1)N1CCOCC1 | inconclusive: 39.8 µM [inhibitor, single point] | –
40 | CCCC(=O)N1CCN(c2ccc(NC(=O)c3ccccc3)cc2)CC1 | inconclusive: 10 µM [inhibitor, partial curve] | –
41 | CCOc1cc(CNc2cccc3ccccc23)cc(Br)c1OCC(=O)NC(C)(C)C | inconclusive: 20 µM [inhibitor, partial curve] | –
42 | COc1cc(/C=N/n2c(-c3ccccc3)n[nH]c2=S)ccc1O | inconclusive: 31.6 µM [inhibitor, single point] | –
